Measured values: PubChem BioAssay (NCI)
Values joined by “and” are separate entries in the source; they are usually repeats but may differ in a detail not shown here. Identical values can stand only once.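 Cells were grown in 96-well plates and exposed to each compound for 48 hours at five concentrations; endpoints were interpolated linearly between bracketing concentrations, or set to the highest concentration if not reached. The concentration for 50% growth inhibition is given as GI50. TGI denotes the concentration required for complete inhibition of growth.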

Test system: NCI-H322M lung
Assay: NCI-60 cell line screen, 48 h

| Compound | TGI | GI50 |
| --- | --- | --- |
| O=C1C(c2ccccc2)=C(c2ccccc2)C(c2ccc(Cc3ccc(C4=C(c5ccccc5)C(=O)C(c5ccccc5)=C4c4ccccc4)cc3)cc2)=C1c1ccccc1 | > 100 µM | – |
| CCS(=O)C(=O)N(O)c1ccc(Cl)cc1 (stereo unspecified) | > 100 µM | – |
| COc1ccc2c(c1)OC(N)=C(C#N)C2c1cc(OC)c(OC)c(OC)c1 (stereo unspecified) | > 100 µM | 0.0533 µM |
| CCC(NC(C)c1ccccc1)C(=O)c1ccc(OCc2ccccc2)c(OCc2ccccc2)c1 (stereo unspecified) | > 100 µM | – |
| CCCCC1=CSC(c2ccccc2)=C(c2ccccc2)S1 | > 100 µM | – |
| CCOC1=C2N=C(C(CC)c3ccccc3F)N=C2C(=O)c2ccccc21 (stereo unspecified) | > 100 µM | – |
| NC(N)=N/N=C/c1c(-c2ccsc2)nc2n1CCS2 | 44 µM | 16.8 µM |
| O=[N+]([O-])c1ccc(SN=S=NSc2cccc(SN=S=NSc3ccc([N+](=O)[O-])cc3)c2)cc1 | > 100 µM | – |
| COC(=O)NC1C(C)OC(OC2C/C=C(/C)C3C=CC4C(OC5CC(OC6CCC(OC7CC(O)C(OC8CCC(O)C(C)O8)C(C)O7)C(C)O6)C(OC(C)=O)C(C)O5)C(C)CC(C)C4C3(C)/C(O)=C3/C(=O)OC4(CC(C=O)=CC(O)C4/C=C\2C)C3=O)CC1(C)[N+](=O)[O-] (stereo unspecified) | 4.6 µM | – |
| COc1ccccc1NC(=O)C1=C(C)NC(C)=C(C(=O)Nc2ccccc2OC)C1c1ccccc1[N+](=O)[O-] | > 100 µM | – |
| CN1CCN(CC(=O)N(C)c2ccc(N=C(c3ccccc3)c3c(O)[nH]c4ccc(C#N)cc34)cc2)CC1 | 14.6 µM | 2.51 µM |
| C1CNOCCCONCCCNOCCCONC1 | > 100 µM | – |
| Cc1ccc(C(=O)CC2(O)C(=O)Nc3c(C)cc(Cl)cc32)cc1 (stereo unspecified) | > 100 µM | – |
| c1ccc(-c2oc(-c3ccccc3)c(CN3CCCCC3)c2CN2CCCCC2)cc1 | 16.7 µM | 3.83 µM |
| COc1cccc(/C=C/C(=O)c2ccc3cc(OC)ccc3c2)c1 | 47.3 µM | 14.4 µM |
| COC1(CC[C@@H](C)COC2OC(CO)C(O)C(O)C2O)O[C@H]2C[C@H]3[C@@H]4CC=C5C[C@@H](OC6OC(CO)C(OC7OC(C)C(O)C(O)C7O)C(O)C6OC6OC(C)C(O)C(O)C6O)CC[C@]5(C)[C@H]4CC[C@]3(C)[C@H]2[C@@H]1C (stereo partly specified) | 6.82 µM | 2.35 µM |
| CC(C)=CCc1cc2c(cc1O)C1=C(C(=O)C3=C(C1=O)S(=O)(=O)CCN3)C(C=C(C)C)O2 (stereo unspecified) | 1.64 µM | 0.47 µM |
| CC(=O)OI1NC(=O)c2ccccc21 | > 100 µM | – |
| CC(C)[C@@H]1CC[C@@H](C)C[C@H]1OC(=O)c1c2n(c3ccccc13)C[C@H]1OC(C)(C)O[C@@H]21 | > 100 µM | – |
| c1cc(N[C@@H]2CCNC2)nc(-c2cnc3ccc(-c4cn[nH]c4)cn23)c1 | 31.1 µM | 4.39 µM |
| COc1ccc(C2c3cc4c(cc3OC(NNc3ccccc3)C2C)OCO4)cc1 (stereo unspecified) | > 100 µM | – |
| C/C(=N\O)c1ccc2ccc3ccccc3c2c1 | > 100 µM | – |
| CSc1nc(=S)[nH]c2c1c(C)nn2-c1ccccc1 | > 100 µM | – |

| Compound | TGI | GI50 |
| --- | --- | --- |
| CC1=CC(=O)CC2(C)CCC(C(C)CC(=O)CC(C)C)CC12OO (stereo unspecified) | > 100 µM and 47.2 µM | > 100 µM and 21.6 µM |
| O=C(O)C1=C/C(=C(/c2ccccc2)c2cc(C(=O)O)c(O)c3ccccc23)c2ccccc2C1=O | > 100 µM | – |
| COc1cc2cc(Oc3ccc(NC(=O)Nc4cc(C(F)(F)F)cc(C(F)(F)F)c4)cc3)c(C)nc2cc1OCCN1CCOCC1 | 6.87 µM | 1.82 µM |
| COC(=O)c1ccc2c(c1)CC1(C2)Cc2cc3c(cc2C1)CCC3 | > 100 µM | – |
| O=Cc1c[nH]c2c(=O)[nH]cnc12 | > 100 µM | – |
| CC(C)c1cccc(C(C)C)c1NC(=O)C(=O)Cc1nc2ccc([N+](=O)[O-])cc2[nH]c1=O | > 100 µM | – |
| Cc1c(C)c2c(c(N)c1C#N)C(=O)N(O)C2=O | > 100 µM | – |
| CSc1ccc(C2=C(c3ccccc3)C(=O)OC2)cc1 | 53.7 µM | 3.79 µM |
| CSC1=NC(=Nc2c(C)cccc2C)C2(CCC(C(C)(C)C)CC2)N1c1ccc(Cl)cc1 (stereo unspecified) | > 100 µM | > 100 µM |
| CC(C)(O)/C1=C/C=C/CCCCCCCCCC1 | > 100 µM | – |
| C[C@H]1CC[P+](Cc2ccccc2)(c2ccccc2)C1 (stereo partly specified) | > 100 µM | – |
| COc1cc2c(c(OC)c1OC)-c1ccc(NN(C(=O)c3ccccc3)C(=O)c3ccccc3)c(=O)cc1[C@@H](NC(C)=O)CC2 (tested in a mixture with another compound) | 51.7 µM | 4.09 µM |
| CNC(=O)c1n[nH]n(C2CCCCC2)c1=S | > 100 µM | – |
| CC(=O)OCC1OC(n2c(=S)n(-c3ccc([N+](=O)[O-])cc3)c(=O)c3ccccc32)C(OC(C)=O)C(OC(C)=O)C1OC(C)=O (stereo unspecified) | > 100 µM | – |
| NS(=O)(=O)c1ccc(Nc2cc(-c3ccc(O)c(F)c3)[nH]n2)cc1 | > 25 µM | 12.4 µM |
| CC1=C(c2nc3ccccc3s2)C(=O)OC1(C)C | > 100 µM | – |
| Cc1nc(N)nc(N)c1CCCCc1ccc(N)cc1 | 23.2 µM | – |
| Cn1c(=O)c2[nH]c(N=O)nc2n(C)c1=O | > 100 µM | – |
| COc1nc(N=P(c2ccccc2)(c2ccccc2)c2ccccc2)cc(=O)n1C | > 100 µM | – |
| COc1cc(-c2cc(/C=C/C(=O)c3ccc(F)c(F)c3)[nH]n2)cc(OC)c1OC | > 100 µM | 3.37 µM |
| Cc1ccc(/C=C2\Sc3scc(-c4ccccc4)[n+]3C2=O)cc1 | > 77.2 µM | – |
| C#CC[C@@H]1C(=O)N(Cc2ccc(OC)cc2)[C@@H](C(C)C)C(=O)N1Cc1ccc(OC)cc1 | > 100 µM | – |
| CCOC(=O)c1c(-c2ccccc2)[n+](=O)c2cc(Cl)c(Cl)cc2n1[O-] | 30.6 µM | 15.4 µM |

| Compound | TGI | GI50 |
| --- | --- | --- |
| CN(C)CCNc1ccc2ncn3c4ccccc4c(=O)c1c23 | 8.11 µM | – |
| CN(C)CCNC(=O)c1cccc2c1nc(-c1ccc(F)cc1)c1ccccc12 | 15.6 µM | – |
| Nc1ccc2n[se]nc2c1 | > 100 µM | – |
| OCC#CCNCl | > 100 µM | – |
| C=C1C[C@H]2C=Nc3cc(OCCCOc4cc5c(cc4OC)C(=O)N4CC(=C)C[C@H]4C=N5)c(OC)cc3C(=O)N2C1 | – | 0.0232 µM |
| CC(C)(CN1C(=O)C(Cl)=C(Cl)C1=O)CN1C(=O)C(Cl)=C(Cl)C1=O | 57.3 µM | – |
| O=C(O/N=C1\CCCC\C1=C/c1ccccc1)c1ccc([N+](=O)[O-])cc1 | > 100 µM | – |
| COc1ccc(C(O)c2cc3c(N)c(C(=O)Nc4ccc(Cl)cc4)sc3nc2C)cc1 (stereo unspecified) | 35.6 µM | 4.18 µM |
| CO[C@H]1C[C@@H]2CC[C@@H](C)[C@@](O)(O2)C(=O)C(=O)N2CCCC[C@H]2C(=O)O[C@H]([C@H](C)C[C@@H]2CC[C@@H](OC(=O)C(C)(CO)CO)[C@H](OC)C2)CC(=O)[C@H](C)/C=C(\C)[C@@H](O)[C@@H](OC)C(=O)[C@H](C)C[C@H](C)\C=C/C=C/C=C/1C | > 10 µM | 0.21 µM |
| O=C(Nc1ccc(Oc2ccc3nc(NC(=O)c4ccco4)[nH]c3c2)cc1)Nc1cc(C(F)(F)F)ccc1F | > 20.4 µM | 3.46 µM |
| O=c1[nH]/c(=C/c2ccc3c(c2)OCO3)c(=O)[nH]/c1=C/c1ccc2c(c1)OCO2 | > 10 µM | – |
| C[N+](C)(CCCCCC[N+](C)(C)CCCN1C(=O)c2cccc3cccc(c23)C1=O)CCCN1C(=O)c2cccc3cccc(c23)C1=O | > 100 µM | – |
| COCC(C)(C)N=CN1Cc2cc3ccccc3nc2C1 | > 100 µM | – |
| COc1ccc(-c2cc(-c3ccc(Nc4nc(Nc5ccccc5)nc(Nc5ccc(Cl)cc5)n4)cc3)nc(N)n2)cc1 | > 50 µM | 7.3 µM |
| CCCNC(=O)Nc1c([N+](=O)[O-])cc(C(F)(F)F)cc1[N+](=O)[O-] | > 100 µM | – |
| O=NN1C(c2ccccc2)CNC(=O)CC1c1ccccc1 (stereo unspecified) | > 100 µM | – |
| O[C@]12C=C(c3nccc4c3[nH]c3ccccc34)[C@@H]3CCN(CCCC/C=C\CC1)C[C@@]31CC3/C=C\CCCCN3[C@H]12 (stereo partly specified) | 19.2 µM | – |
| O=C1CC2OCC=C3CN4CCC56c7ccccc7N1C5C2C3CC46O (stereo unspecified) | > 100 µM | – |
| O=C1CCN2c3ccccc3[C@H]3Cc4cccc(c4[C@@H]2C3)CCO1 | > 100 µM | – |
| Oc1ccc(Br)cc1C=Nc1cccc(C(F)(F)F)c1 | 96.2 µM | – |
| COc1ccc(C(O)/C(=N/N)c2nc3ccc(Cl)cc3[nH]c2=O)cc1 (stereo unspecified) | > 100 µM | – |
| COc1cc2c(c(OC)c1OC)-c1ccc(SC)c(=O)cc1[C@@H](NCc1ccc(F)cc1)CC2 | 75 µM and 34.5 µM | – |
| Nc1nncc2c1c(Br)cn2C1OC(CO)C(O)C1O (stereo unspecified) | > 100 µM | – |

| Compound | TGI | GI50 |
| --- | --- | --- |
| CC(CSC(=N)N)C(N)=O (stereo unspecified) | > 100 µM | – |
| O=C1Nc2ccc(Br)cc2C12CC(c1ccccc1)=NN2 (stereo unspecified) | > 100 µM | 6.97 µM |
| COc1cc(/C=C/C(=O)c2cccc(-n3cc(-c4cc(OC)c(OC)c(OC)c4)[nH]c3=O)c2)cc(OC)c1OC | 16.5 µM | 3.61 µM |
| CCCCN(CCCC)C(=O)[C@H](CC)[C@@H]1CC[C@@H](C)[C@@H]([C@H](C)[C@@H](O)[C@@H](C)C(=O)[C@H](CC)C2O[C@]3(C=C[C@@H](O)[C@]4(CC[C@@](C)([C@H]5CC[C@](O)(CC)[C@H](C)O5)O4)O3)[C@H](C)C[C@@H]2C)O1 (stereo partly specified) | 9.71 µM | 2.66 µM |
| CCOC(=O)N/N=C(/N)c1cccc(Br)c1 | > 100 µM | – |
| COc1ccc(-c2cc(=O)c3c(O)c(OC)c(OC)c(OC)c3o2)cc1OC | > 100 µM | – |
| CCc1n[nH]c(=O)n1CCCCCCCCn1c(CC)n[nH]c1=O | > 100 µM | – |
| Cc1ccc(NC(=O)CCCC(=O)CC(=O)c2ccc(Br)cc2)cc1 | > 100 µM | – |
| COc1ccc2nc3cc(Cl)ccc3c(NCCCNCCO)c2c1 | 2.33 µM | 0.404 µM |
| COc1cc(C2c3cc4c(cc3[C@@H](NCCN(C)C)C3COC(=O)[C@H]23)OCO4)cc(OC)c1O (stereo partly specified) | 7.25 µM and 18.1 µM | – |
| FC(F)(F)c1ccccc1C1SCC2=Nc3ccccc3CN21 (stereo unspecified) | 26.5 µM | – |
| O=[N+]([O-])c1ccc(C2=Nc3ccccc3S(=O)C(c3ccccc3)C2)cc1 (stereo unspecified) | > 100 µM | – |
| Oc1ccc(Cl)cc1C(c1cc(Cl)ccc1O)C(Cl)(Cl)Cl | 5.1 µM | 1.85 µM |
| COc1ccc2[nH]c3c(c2c1)[C@H](c1ccccc1)C[C@@H]1C(=O)N(c2ccccc2)C(=O)[C@H]31 | > 100 µM | – |
| O=C1NC2NC3NC(=O)NC3NC2N1 (stereo unspecified) | > 100 µM | – |
| Nc1nc(Nc2ccc(Cl)c(Cl)c2)nc2nc[nH]c12 | 36.6 µM | – |
| COC(=O)C(=O)C(C(=O)OC)C(=O)C(=O)Nc1c(C)cccc1C (stereo unspecified) | > 100 µM | – |
| C#Cc1cccc(Nc2ncnc3cc(NC(=O)CCl)ccc23)c1 | 6.96 µM | 3.62 µM |
| CC1(C)C2CCC3CC(CCC#N)CCC3C21C#N (stereo unspecified) | > 100 µM | – |
| C[C@@H](CC(O)C(O)C(C)(C)O)C1CCC23CC12CCC1[C@@]2(C)CCC(O)C(C)(C)C2CC(OC2OC(CO)C(O)C(O)C2O)[C@]13C (stereo partly specified) | > 10 µM | – |
| Brc1ccc(C2C3CSc4ccccc4C3=NN2c2ccccc2)cc1 (stereo unspecified) | > 100 µM | – |
